# Measured values taken from publication PMC12136788.
# Some of the results follow.
# T1: UNK ZnF1-3 (human, UniProt Q9C0B0 31-174)
# T1 sequence: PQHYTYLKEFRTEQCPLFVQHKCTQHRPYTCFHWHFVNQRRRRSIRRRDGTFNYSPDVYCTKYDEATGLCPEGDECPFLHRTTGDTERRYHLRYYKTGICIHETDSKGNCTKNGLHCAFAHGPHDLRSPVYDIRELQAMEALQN
# B1: 66471820_66471940_916_CDS_ENSMUSG00000015222_ENSMUST00000077355|mouse|control|control (ssRNA)
# RNA: GGGAGUUCUACAGUCCGACGAUCCAGGAUGCCAGAUUUGGGGGUUCCUGGUGUCCUGGGGUAGCUCGGGGUUCCCGGGGUGCCUGGGGUACGUGAAGAGUAGCUUGGGGGAGUUCCAGGGGUGAUUGCAGUUGAUCCAGGGGUCAACAGAGGAUUGAGCAUCA
# B2: 60066986_60067106_270_3pUTR_ENSMUSG00000026977_ENSMUST00000102748|mouse|control|control (ssRNA)
# RNA: GGGAGUUCUACAGUCCGACGAUCUCUAGAAUGAUAUGAAUCAUUUAAACUGGUUCCUCUGUUUCCAGACACCAUCCUAGUGCUUAAAGAGCCAGAGGGUUGAACAGAAAUUCUUCUUGGAAUCCUGGAAGGUUUAGACUCCAUCAACAGAGGAUUGAGCAUCA
# B3: chr2:74706439:74706440:+_ENSMUSG00000027099_ENSMUST00000155844|mus_hu|motif|central (ssRNA)
# RNA: GGGAGUUCUACAGUCCGACGAUCUGUAGCUUCAUCACACCACUGAAGAUACAGCUCUGCAGUCAACAGCAUAUUGUUGACGGAUUCCAUGUAAGCUUUCAUUUCUGCUUUUUGGACUUCCUCCAGCCCAUCACUAAGAGAAUGCAACAGAGGAUUGAGCAUCA
# B4: chr1:113244022:113244023:-_ENSG00000155366_ENST00000369637|hu_hu|motif|central (ssRNA)
# RNA: GGGAGUUCUACAGUCCGACGAUCUAGGCGUGGCUCCCAGAGCGCUGGGAGGGAGGGCCCGUGCCACCACCUCGGGGCGGGAAAACAAUGCAGUCCUGGGCAGGAGGGAACUGAAAAUGGGAGCCUUCAGCAUGGAGCCCUCAGCAACAGAGGAUUGAGCAUCA
# B5: chr11:108017000:108017001:+_ENSG00000075239_ENST00000265838|hu_hu|FALSE|FALSE (ssRNA)
# RNA: GGGAGUUCUACAGUCCGACGAUCAUUCACUUUUUGGGGAUCAAUCUCCAACAUUUUAAUGUUUGCUAGUACAACCAGACUAAAGGCUUCAUUUACUUCCCACAUUGCAAUAUCUUCUUUUUUCAAUCCCACAUCUUUAAGAACCAACAGAGGAUUGAGCAUCA
# B6: chr8:74858975:74858976:-_ENSG00000154582_ENST00000284811|hu_mus|hu_hu_hu_mus_True|48_68 (ssRNA)
# RNA: GGGAGUUCUACAGUCCGACGAUCGACCUUGUAGGUAAAAUACAUGCACACUUUUGAUAGCACAUGUGAAGGUAUCUCUCUAAAAUUGACCUCAUUGGUUUCAUUCUCAGCAAACUGACCUGGACCACUCAACAUAGCCUUUAUCAACAGAGGAUUGAGCAUCA
# B7: chr8:81896215:81896216:-_ENSMUSG00000031681_ENSMUST00000066091|mus_hu|FALSE|FALSE (ssRNA)
# RNA: GGGAGUUCUACAGUCCGACGAUCGAGAUUUGUUUAUUUACAGAGAAGUCUCUUUAACUUCUUAGUUUGAAGUCCAGAAGAGUAGAAAUUACCAUUCCUAGUGUUUAAAAAAGUAACCCAGUCAGCACCGGGUUGGCGGCGCGCCAACAGAGGAUUGAGCAUCA
# B8: chr12:111875471:111875472:+_ENSMUSG00000018707_ENSMUST00000018851|mus_hu|FALSE|FALSE (ssRNA)
# RNA: GGGAGUUCUACAGUCCGACGAUCAUCUGUCCAUUCCCUGGUGUUGGGGUCCAGGGUUCCGUAGAGGUGGUCUUUGCUGAUGGCCUUGGGGUCGAUGAUAUGGGCCACACCUUCCACACCCUCGAGUCUCUCCAAUGCCUUCAGCAACAGAGGAUUGAGCAUCA
# B9: chr12:25358290:25358291:-_ENSG00000133703_ENST00000311936|hu_mus|motif|central (ssRNA)
# RNA: GGGAGUUCUACAGUCCGACGAUCGUACGGUUCAUGACAAAAAUAUUACAAAUUUCAGAUCACUUCACAGCACGUACUCCGGUAAACAUUUAAAAGUUAAUUUUAAUUAAGAGUGGUCACUUUUAAAUUUAAUGUUUGAUAUGACAACAGAGGAUUGAGCAUCA
# B10: chr22:46712247:46712248:+_ENSG00000075218_ENST00000454366|hu_hu|FALSE|FALSE (ssRNA)
# RNA: GGGAGUUCUACAGUCCGACGAUCAGUAGGCAUAACCUUUGUCUUGGAAUUUAGACAGGAAUCUCGCCGUCUGAUACUUCUAGUCUUAUUCAAUUGAGAAGAUUCUGACCAAGCGCAACUGGAGUUCAGCCACUGGCCGCCACCCAACAGAGGAUUGAGCAUCA
# B11: chr4:103717905:103717906:-_ENSG00000109332_ENST00000394803|hu_hu|motif|central (ssRNA)
# RNA: GGGAGUUCUACAGUCCGACGAUCCAGUGCUAUAUUAAACAGUGUAUUGGAAGAUAGAUUAACUAAUAGCUCCAAGCCUCCGGACAAUUUAAAUGAAAAUUACAAAAUGUUUGAGACCCUAUUUUGGAAUACAAAGGGUGUUUGCAACAGAGGAUUGAGCAUCA
# B12: 65695139_65695259_2033_3pUTR_ENSMUSG00000021978_ENSMUST00000022550|mouse|control|control (ssRNA)
# RNA: GGGAGUUCUACAGUCCGACGAUCGCAGCAUGUCGUGGUACGGGAGCUGCACCUGCUCCCCGAGCACCACCGGCACGGCCCCCACCUCCAGGGCCUCGAAGAGCCGCGUGGCACACCCAGAUGAAAUGAGCAGGUGCGGGUCCCCAACAGAGGAUUGAGCAUCA
# B13: chr5:61651017:61651018:+_ENSG00000068796_ENST00000381103|hu_mus|FALSE|FALSE (ssRNA)
# RNA: GGGAGUUCUACAGUCCGACGAUCCCUAUGUUCAUCAAUAGGAUCUGCUGUUGUUAGGGGUCUGUAAUCCAAGCUCCCUCUGAAGUCUCUGAUCAUACACAUAAUUUCGUAAUUUGGAUUUGUAGCAUCAACAUCCUGGGCUCUCAACAGAGGAUUGAGCAUCA
# B14: chr10:103870385:103870386:-_ENSG00000198728_ENST00000425280|hu_mus|FALSE|FALSE (ssRNA)
# RNA: GGGAGUUCUACAGUCCGACGAUCGUCACAGUCGAGGGACACGAAGUUGCUGUGGAAUGCCUCCUUGGGGUGCUUGAGCACGUAGUACAGCUCUGUGGCACCCCCCUCAAAAAUGCUUCGGAAGUAGCGUGGUAUCAGGGUCCGCAACAGAGGAUUGAGCAUCA
# Biological target: T1, UNK ZnF1-3
# Assay: nsRBNS (natural sequence RNA bind-n-seq); RBNS binding buffer (assumed for nsRBNS): 25 mM Tris pH 7.5, 150 mM KCl, 3 mM MgCl2, 0.01% Triton X-100, 500 ug/ml BSA, 20 U/ml SUPERase-In, 4 C; UNK is unkempt and MSI1 is Musashi-1; names of the RNAs are library labels; protein concentration not given here; high values mean tight binding
row,Binder,binding signal
1,B1,2.3 enrichment R
2,B2,0.801 enrichment R
3,B3,0.518 enrichment R
4,B4,1.49 enrichment R
5,B5,0.785 enrichment R
6,B6,0.879 enrichment R
7,B7,0.746 enrichment R
8,B8,0.546 enrichment R
9,B9,1.09 enrichment R
10,B10,1.28 enrichment R
11,B11,1.37 enrichment R
12,B12,0.842 enrichment R
13,B13,1.23 enrichment R
14,B14,0.977 enrichment R
